Assay [1] addresses T1, PabA double variant [Y127A, S171A] (Escherichia coli) (UniProt P00903).
T1 sequence: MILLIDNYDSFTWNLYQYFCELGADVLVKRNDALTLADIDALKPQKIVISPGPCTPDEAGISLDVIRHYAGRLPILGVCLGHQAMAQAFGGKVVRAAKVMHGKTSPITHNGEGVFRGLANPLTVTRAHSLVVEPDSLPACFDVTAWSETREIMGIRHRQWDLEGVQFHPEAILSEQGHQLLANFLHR
The assay is described as follows: condition: only without Gln (250 μM PabB titrated into 25 μM PabA); ITC; 250 μM PabB titrated into 25 μM PabA in the cell; 25 °C; 50 mM Tris/HCl pH 7.5, 50 mM KCl, 5 mM MgCl2; without Cho and Gln; one set of sites; both purified.

Assay [2] has as its target T1, PabA double variant [Y127A, S171A] (Escherichia coli). The assay is described as follows: SEC; analytical SEC without Gln; PabA and PabB mixed equimolar, 50 μM each; Superdex 200 increase 10/300 GL; 50 mM Tris/HCl pH 7.5, 50 mM KCl, 5 mM MgCl2, 2 mM DTT; 25 °C; without Cho; both purified. (In general: In gel filtration, larger molecules generally elute earlier.)
The target of assay [3] is T2, PabA variant aS171A (Escherichia coli) (UniProt P00903).
T2 sequence: T1 sequence with A127Y
The assay is described as above.

The target in assay [4] is T3, PabA, glutaminase subunit of aminodeoxychorismate synthase (ADCS) from Escherichia coli, wild type (Escherichia coli) (UniProt P00903).
T3 sequence: T1 sequence with A127Y, A171S
The assay is described as follows: ITC; 250 μM PabB titrated into 25 μM PabA in the cell; 25 °C; 50 mM Tris/HCl pH 7.5, 50 mM KCl, 5 mM MgCl2; without Cho and Gln; one set of sites; both purified. (ITC needs no label: the signal is the heat of the interaction.)

Assay [5] concerns the target T3, PabA, glutaminase subunit of aminodeoxychorismate synthase (ADCS) from Escherichia coli, wild type (Escherichia coli). The assay is described as follows: SEC; analytical SEC without Gln; PabA and PabB mixed equimolar, 50 μM each; Superdex 200 increase 10/300 GL; 50 mM Tris/HCl pH 7.5, 50 mM KCl, 5 mM MgCl2, 2 mM DTT; 25 °C; without Cho; both purified.
The target is the same in assay [6]. The assay is described as follows: SEC; analytical SEC with 5 mM L-Gln in the buffer; PabA and PabB mixed equimolar, 50 μM each; Superdex 200 increase 10/300 GL; 50 mM Tris/HCl pH 7.5, 50 mM KCl, 5 mM MgCl2, 2 mM DTT; 25 °C; without Cho; both purified.

This is an account of results in paper PMC7617670.

Substitutions are numbered along the chain they refer to. These are yes or no findings as the source states them, for the method shown. Some entries that bind do so weakly or less than the wild type.

B1: PabB, synthase subunit of aminodeoxychorismate synthase (ADCS) from Escherichia coli, wild type (enzyme, UniProt P05041 1-453)
chain: MKTLSPAVITLLWRQDAAEFYFSRLSHLPWAMLLHSGYADHPYSRFDIVVAEPICTLTTFGKETVVSESEKRTTTTDDPLQVLQQVLDRADIRPTHNEDLPFQGGALGLFGYDLGRRFESLPEIAEQDIVLPDMAVGIYDWALIVDHQRHTVSLLSHNDVNARRAWLESQQFSPQEDFTLTSDWQSNMTREQYGEKFRQVQEYLHSGDCYQVNLAQRFHATYSGDEWQAFLQLNQANRAPFSAFLRLEQGAILSLSPERFILCDNSEIQTRPIKGTLPRLPDPQEDSKQAVKLANSAKDRAENLMIVDLMRNDIGRVAVAGSVKVPELFVVEPFPAVHHLVSTITAQLPEQLHASDLLRAAFPGGSITGAPKVRAMEIIDELEPQRRNAWCGSIGYLSFCGNMDTSITIRTLTAINGQIFCSAGGGIVADSQEEAEYQETFDKVNRILKQLEK
Take B1: the binding result was “no binding” in assay [1], “no binding (condition: without Gln (50 μM each))” in assay [2] and “binds weakly” in assay [3].

B2: PabB variant bD308A (enzyme, UniProt P05041 1-453)
chain: B1 chain with D308A
In the case of B2, the binding entry is “no binding (tested: 250 μM PabB titrated into 25 μM PabA)” in assay [4], “no binding (tested: 50 μM each)” in assay [5] and “no binding (tested: 50 μM each)” in assay [6].

B3: PabB variant bD308N (enzyme, UniProt P05041 1-453)
chain: B1 chain with D308N
Regarding B3, the results for the binding result in assay [4], in assay [5] and in assay [6] were “no binding (tested: 250 μM PabB titrated into 25 μM PabA)”, “no binding (tested: 50 μM each)” and “no binding (tested: 50 μM each)”, respectively.

B4: PabB variant bD308E (enzyme, UniProt P05041 1-453)
chain: B1 chain with D308E
As to B4, the binding result in assay [5] was “no binding (condition: without Gln (50 μM each))”.

B5: PabB variant bR311A (enzyme, UniProt P05041 1-453)
chain: B1 chain with R311A
Regarding B5, the binding entry in assay [4] was “no binding (tested: 250 μM PabB titrated into 25 μM PabA)”; in assay [5], “no binding (tested: 50 μM each)”; in assay [6], “no binding (tested: 50 μM each)”.

B6: PabB variant bY210A (enzyme, UniProt P05041 1-453)
chain: B1 chain with Y210A
With B6, in assay [5], the binding entry is “no binding (condition: without Gln (50 μM each))”.
